Our source for the z-score values is PubChem BioAssay AID488969 (Vanderbilt High Throughput Screening Facility, 2010).

In all, about 110,000 compounds were measured (“z-score”: median about -0.1, highest 2% from about 2 on). The list shows a part of the results. The source made the active and inactive calls.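 The calls were made as follows: active = z-score in the third read window above 3 or below -3; inactive = the rest.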

In the assay the target is Metabotropic glutamate receptor 8 (Rattus norvegicus) (UniProt P70579). Description: mGluR8 Gi/Go-coupled signaling modulation – cell-based, rat, thallium flux, HTS, primary screen (AID 488969). Conditions: HEK293 rat mGluR8, GIRK (G protein-gated inwardly rectifying potassium channel) thallium flux, FluoZin2; at 10 µM; stronger effect = higher value; submaximal glutamate (EC20) added with thallium.
Sequence of UniProt P70579 (P70579 whole entry, looked up): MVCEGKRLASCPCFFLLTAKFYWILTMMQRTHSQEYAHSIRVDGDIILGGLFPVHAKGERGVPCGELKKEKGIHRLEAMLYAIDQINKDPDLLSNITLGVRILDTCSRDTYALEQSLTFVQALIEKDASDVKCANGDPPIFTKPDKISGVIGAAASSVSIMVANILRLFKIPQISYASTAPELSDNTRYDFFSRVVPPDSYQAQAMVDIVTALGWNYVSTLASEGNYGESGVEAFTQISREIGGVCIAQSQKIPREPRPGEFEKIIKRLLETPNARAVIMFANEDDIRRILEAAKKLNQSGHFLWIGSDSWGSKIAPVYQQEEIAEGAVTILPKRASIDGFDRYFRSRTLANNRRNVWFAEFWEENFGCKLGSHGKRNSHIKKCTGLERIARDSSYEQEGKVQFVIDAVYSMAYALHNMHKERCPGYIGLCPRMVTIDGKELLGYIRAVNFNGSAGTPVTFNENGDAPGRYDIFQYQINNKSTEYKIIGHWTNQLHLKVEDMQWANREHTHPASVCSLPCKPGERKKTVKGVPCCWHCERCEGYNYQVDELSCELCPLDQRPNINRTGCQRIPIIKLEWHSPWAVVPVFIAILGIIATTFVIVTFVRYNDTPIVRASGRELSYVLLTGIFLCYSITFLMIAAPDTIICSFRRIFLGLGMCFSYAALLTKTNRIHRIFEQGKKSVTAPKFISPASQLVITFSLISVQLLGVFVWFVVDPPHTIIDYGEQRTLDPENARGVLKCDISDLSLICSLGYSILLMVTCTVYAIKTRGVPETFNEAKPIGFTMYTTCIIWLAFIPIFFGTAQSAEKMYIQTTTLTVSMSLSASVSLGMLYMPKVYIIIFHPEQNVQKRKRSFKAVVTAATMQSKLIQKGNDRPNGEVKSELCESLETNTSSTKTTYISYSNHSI
The compound `CCOc1ccc(CCNC(=O)CCc2c(C)nc3ncnn3c2C)cc1OCC` displayed a z-score of -0.26.
Next, `Brc1ccc(-c2nnc3sc(CN4CCC5(CC4)OCCO5)cn23)cc1`: -0.287; `Cc1cc(N2CCN(C(=O)OC(C)(C)C)CC2)n2ncnc2n1`: -0.75; `COc1cccc(-c2nc(CS(=O)CC(=O)NC3CC3)c(C)o2)c1` (stereo unspecified): -0.0157.
For `COC(=O)c1ccc(COC(=O)CNC(=O)c2ccco2)cc1` the value was 0.327; for `COC(=O)c1cc2ccc(OC)c(OC)c2c(=O)s1`, 0.0942; for `O=C(NCCO)c1cccc(Nc2nc(-c3ccccc3)c3cc(Cl)ccc3n2)c1`, -0.336.
For `O=C(O)c1cc2n(n1)C(C(F)(F)F)CC(c1ccco1)N2` (stereo unspecified) the value was 0.315; for `C=CCn1c(SCC(=O)NCc2ccco2)nnc1-c1ccc2ccccc2n1`, -0.786; for `COc1ccc(C(c2nnnn2Cc2ccccc2)N2CCN(C(=O)c3ccco3)CC2)cc1` (stereo unspecified), -1.98.
Take `COc1ccc2[nH]c(=O)c(CN(C(=O)NC3CCCCC3)C3CCCC3)cc2c1`: the z-score is -0.443.
Compound `CCCCC(=O)NC(c1ccc([N+](=O)[O-])cc1)c1c(O)ccc2ccccc12` (stereo unspecified) had a z-score of -0.000474.
Next, `Cc1cc[n+](-c2nc([O-])sc2/C=N/Nc2ccc([N+](=O)[O-])cc2)cc1`: 0.255; `CCOc1cc(CNCc2ccccn2)ccc1OCC(=O)NC1CCCCC1`: -0.535; `O=C(Nc1ccc(CN2CCOCC2)cc1)c1ccccc1F`: -0.0109.
Next, `COc1ccc(Cl)cc1CN1CCN(c2nc(C)cc(C)c2C#N)CC1`: -0.333; `COc1cc(N/C=C(\C(C)=O)c2ccccc2)cc(OC)c1`: -0.663.
For `COc1ccc(C(=O)Nc2cccnc2)cc1OC` the value was -0.0486; for `Cc1ccc(NC(=O)c2ccc(-c3nn(C)c(=O)c4ccccc34)cc2)c(C)c1`, -0.362; for `CCC(=O)Nc1ccccc1Sc1ncnc2scc(-c3ccccc3)c12`, -0.77.
As to `Cc1nn(-c2ccccc2)c(C)c1C(=O)OC/C(O)=C(\C#N)c1nc2ccccc2[nH]1`, the z-score is -0.394.
For `Cc1ccccc1NC(=O)c1c(F)c(F)c(F)c(F)c1F` the value was 0.404; for `O=C(Nc1ccccn1)C1(c2ccccc2)CCCC1`, -0.498; for `Nc1cc2nsnc2cc1Br`, -0.0144.
For `COc1ccccc1NC(=O)CNC(=O)c1ccc(F)cc1` the value was 0.0471.
For `CCCOc1ccc(/C(O)=C2/C(=O)C(=O)N(CCOC)C2c2cccnc2)cc1` (stereo unspecified) the value was -1.65; for `CCN1C(=O)N(CC)C2NC(=S)NC21` (stereo unspecified), 0.386.
In turn, `CN1CCN(C(c2cccc(C(F)(F)F)c2)c2nnnn2C(C)(C)C)CC1` (stereo unspecified) came in with a z-score of 0.181.
The compound `O=C(NCC(=O)N(Cc1ccccc1)C(C(=O)NC1CCCC1)c1cccnc1)c1ccco1` (stereo unspecified) had a z-score of -0.0981.
Next, `CCC(C)C(NC(=O)C1CCC(C)CC1)C(=O)NC(C(=O)OC)C(C)C` (stereo unspecified): -0.134; `COC(=O)CNS(=O)(=O)c1ccc(C)cc1`: 0.036; `CC(=O)c1ccc(NC(=O)CN2C(=O)/C(=C/C=C/c3ccccc3)SC2=S)cc1`: -0.117.
Compound `COc1cc(NC(=O)c2ccc(C)cc2)c(OC)cc1NC(=O)CN1CCCCC1` came in with a z-score of 2.37.
In turn, `CCOC(=O)Nc1ccc2c(c1)N(C(=O)CCN1CCOCC1)c1ccccc1S2` yielded a z-score of 0.00279.
Next, `COc1ccc(S(=O)(=O)N2CC3CCCN3c3ccc(C(F)(F)F)cc32)cc1` (stereo unspecified): 0.596.
Next, `COc1ccc(S(=O)(=O)Nc2ccc(O)c(Sc3nc4ccccc4s3)c2)cc1`: -0.313; `COC(=O)C1CCN(C(=O)c2ccccc2NC(C)=O)CC1`: 0.648; `Cc1csc2nc(CNS(=O)(=O)c3ccc4c(c3)OCCO4)cn12`: -0.405.
Next, `CCCc1[nH]n(-c2nc3ccccc3s2)c(=O)c1C=NCC1CCCO1` (stereo unspecified): -0.373.
Regarding `Cc1c(Cl)c(C(=O)NNC(=S)Nc2ccccc2)nn1C`, the z-score amounted to 0.0403.
For `CCOc1ccc(N(CC(=O)Nc2cccc(OC)c2)S(=O)(=O)c2c(C)noc2C)cc1` the value was 0.0981; for `CCn1c(SC(C)C)nnc1C1CCN(S(=O)(=O)c2ccc(OC)cc2)CC1`, -0.256.
For `O=C(CSc1nnc(C2CC2)n1Cc1ccccc1)c1ccc(S(=O)(=O)N2CCOCC2)cc1` the value was 0.166; for `Cc1ccc(/C=N/NC(=O)c2cccc([N+](=O)[O-])c2)o1`, -0.121.
Next, `COc1ccccc1C(O)(C(=O)NN(C)c1ccccc1)c1ccccc1OC`: -0.467; `CCOc1ccccc1NC(=O)CCCN1C(=S)NC(C)(C)CC1C` (stereo unspecified): -0.565; `COCCCN(C(=O)Nc1ccccc1)C(C)c1ccncc1` (stereo unspecified): -0.179.
In turn, `O=C(O)c1cccc(NC(=O)c2cn(-c3ccccc3)nc2-c2cc3ccccc3o2)c1` registered a z-score of -0.504.
Next, `CCOc1c(Br)cc(C2NS(=O)(=O)N=C3CCCCCN32)cc1OC` (stereo unspecified): 0.364; `Cn1c(CNc2ccc(Cl)cc2)nc2ccccc21`: -0.327; `CC1(C)CC(=O)c2cnn(-c3nc4ccccc4[nH]3)c2C1`: 0.463.
Consider `O=C(/C=C/c1ccc(S(=O)(=O)NCc2ccco2)cc1)NCc1cccc(Cl)c1`, for which the z-score was -0.451.
For `Nc1c(O)ccc2c1C(=O)c1ccccc1C2=O` the value was -0.0265.
Take `O=C(Nc1c(Cl)cc(Cl)cc1C(=O)NCC1CCCO1)c1ccco1` (stereo unspecified): the z-score came to 0.151.
`CC1(C)C(=O)Nc2ccccc2N1C(=O)COC(=O)c1ccc(Cl)c(S(=O)(=O)NCc2ccccc2)c1` yielded a z-score of -0.107.
For `Cc1[nH]n(-c2cccc(Cl)c2)c(=O)c1C=NC12CN3CN(CN(C3)C1)C2` the value was -0.312; for `Cn1c(SCC(=O)c2ccccc2)nnc1-c1cccc(N)c1`, -0.165; for `CCC(C)(C)n1nnnc1C(c1ccc(C)cc1)N1CCC(C)CC1` (stereo unspecified), 0.341.
Next, `S=C(NCCCN1CCOCC1)Nc1ccc(Cl)cc1`: -0.154; `Cc1ccccc1C(=O)NNC(=S)NC(=O)c1ccccc1`: active: 3.78; `c1ccc2c(c1)oc1c(NCC3CCCO3)ncnc12` (stereo unspecified): 0.655.
Next, `CCN(C(=O)CN(C)Cc1cccc(Cl)c1Cl)c1c(N)n(Cc2ccccc2)c(=O)[nH]c1=O`: -0.301; `CN(C(=O)c1ccccn1)c1nnc(-c2ccccn2)s1`: 2.29.
In turn, `CCn1cc([N+](=O)[O-])c(C(=O)Nc2c(C)nn(Cc3c(F)c(F)c(F)c(F)c3F)c2C)n1` had a z-score of 0.0235.
For `CCOC(=O)c1ccc(Nc2nc(=O)c3cccnc3s2)cc1` the value was -0.132; for `COCCCNC(=O)Cn1nnc(-c2ccccc2NC(=O)c2ccccc2F)n1`, -0.165.
`COCCNC(=O)c1cc2c3ccccc3n(C)c2s1` showed a z-score of -0.192.
For `O=S(=O)(O)c1nc2ccccc2n1Cc1ccccc1` the value was -0.221; for `CCOC(=O)c1nnc(-c2cccs2)nc1Oc1ccccc1C(=O)OC`, -0.554.
For `Cc1ccc(NC(=O)Cc2nnc(SCC(=O)c3ccc(Br)cc3)n2C)cc1` the value was 0.0995; for `S=C(NCc1cccnc1)Nc1cccc(Cl)c1`, 0.237; for `Cc1ccc(-c2nnc(SCc3ccc(C#N)cc3)n2Cc2ccco2)cc1`, 0.0444.
For `COC(=O)c1c(NC(=S)NC(=O)c2ccco2)sc2c1CCCC2` the value was active: 3.53; for `CCCc1c(CC)c(=N)c2ccccc2n1C`, 0.0798; for `COc1nc(NC2CCCCC2)nc(N2CCCCCC2)n1`, 0.939.
In the case of `Cc1ccc(-c2cc(-c3ccccc3)nc(Cl)n2)cc1`, the z-score was 0.178.
For `Nc1nc(N2C(=O)C3CC=CCC3C2=O)nn1-c1ccccc1` (stereo unspecified) the value was -0.0994; for `CC(C(=O)NCC1CCCCC1)N1CCN(S(=O)(=O)/C=C/c2ccccc2)CC1` (stereo unspecified), -0.564; for `C=CCNC(=O)Nc1ccc2oc(C)nc2c1`, -0.283.
For `O=C(NCc1cccnc1)c1ccc(COc2ccc3c(c2)CCC3)o1` the value was 1.12; for `Cc1ccc2cc(CCNC(=O)c3c(-c4ccccc4Cl)noc3C)c(=O)[nH]c2c1`, -0.412; for `CCOC(=O)c1cnc2c(N=Nc3cccc(Cl)c3)c(N)nn2c1N`, 0.153.
For `COc1ccccc1CN(Cc1cc2c(C)ccc(C)c2[nH]c1=O)Cc1nnnn1Cc1ccco1` the value was 0.414; for `CCNC(=O)c1oc2c(c1C)C(=O)CC(C)(C)C2`, -0.278; for `O=C(Nc1ncnc2sc3c(c12)CCC3)c1ccco1`, -0.814.
Take `O=c1c2ccccc2nc(/C=C/c2ccccc2)n1CCc1ccccc1`: the z-score is -0.262.
`CSCCC(NC(N)=O)C(=O)NCC1CCCCC1` (stereo unspecified) had a z-score of -0.0211.
Turning to `O=C(c1ccccc1)N1CCC(c2nc(-c3ccc(S(=O)(=O)NCC4CCCO4)cc3)no2)CC1` (stereo unspecified), the z-score was -0.347.
For `CCOC(=O)CNC(=O)c1cccs1` the value was 1.18; for `COc1ccc(-c2nnc(NC(=O)CSc3ccc(Cl)cc3)s2)cc1OC`, -0.282.
For `Cc1ccc(N(C(=O)NC2CCCCC2)C2=NCCCCC2)cc1` the value was 0.548; for `CCOC(=O)CNC(=O)CSc1nc2sc(C)c(C)c2c(=O)n1C`, -0.726.
Next, `CCCC(c1nnnn1CCc1ccccc1)N1CCC(C(N)=O)CC1` (stereo unspecified): -0.528; `O=C(OCc1cn(-c2ccc(Cl)c(Cl)c2)nn1)c1ccccc1Cl`: -0.78; `COc1ccccc1CNS(=O)(=O)c1c(C)[nH]c(=O)[nH]c1=O`: 0.0871.
On to `COCCNC(=O)Nc1ccc2nc(C)sc2c1`, for which the z-score was -0.0702.
As for `O=S(=O)(N[C@@H]1C[C@H]2CC[C@@H]1C2)c1cccs1`, the z-score was -0.265.
Next, `Cc1ccc(C2=NN(Cc3nnc(-c4ccccc4)o3)C(=O)SC2)cc1`: -0.258.
For `Oc1ccc(-c2nc3cnccn3c2Nc2ccc3c(c2)OCCO3)cc1` the value was -0.974.
For `CC(Oc1ccc(Cl)cc1Cl)C(=O)Nc1ccc2oc(-c3ccncc3)nc2c1` (stereo unspecified) the value was -0.432; for `Cc1cccc(-n2ncc3c(NCc4ccc5c(c4)OCO5)ncnc32)c1`, -0.121.
On to `CC(Sc1nc2ccccc2s1)C(=O)Nc1nnc(C(C)C)s1` (stereo unspecified), for which the z-score amounted to 0.166.
Next, `O=C(Nc1ccon1)c1sc2cc(F)ccc2c1Cl`: 0.27; `Cc1cccc(N2C(=O)C(Cl)=C(Nc3c(C)n(C)n(-c4ccccc4)c3=O)C2=O)c1C`: -0.132.
On to `O=C(O)c1ccccc1C(=O)OCc1ccccc1`, for which the z-score was -0.111.
For `Cc1cccc(N2CCN(C(=O)c3ccc4ncsc4c3)CC2)c1C` the value was -0.0701; for `Cc1cc(OCC(=O)O/N=C(\N)Cc2cccs2)ccc1Br`, -0.29; for `NC(=S)N/N=C/c1ccccc1`, 0.103.
Next, `CCCCn1c(SCC(=O)NCCOC)nc2ccc(N3CCOCC3)cc2c1=O`: 1.19; `CCOC(=O)N1CCN(C(=O)c2ccc3c(=O)n(Cc4ccccc4OC)c(=S)[nH]c3c2)CC1`: -0.36.
For `CCOc1ccc(N2C(=O)c3cccnc3C2Nc2ccc(Cl)cc2)cc1` (stereo unspecified) the value was -1.34.
